Laboratory results from PubChem BioAssay AID1476 (National Center for Advancing Translational Sciences (NCATS), 2009).
The campaign covered roughly 200,000 compounds. About 4,500 (2.2%) were called active. Inconclusive results, whose numbers are uncertain, are shown with a selection of clear calls. Calls follow the shape of the dose curve; as a rule, active = well fitted inhibition curve with a large enough effect; inconclusive = small, poorly fitted or top-dose-only effect, or effect the other way; inactive = flat fitted curve, though single readings scatter. Potencies beside an inconclusive call are fits to weak or partial responses and may not hold up.

The molecules below were run against Cruzipain (Trypanosoma cruzi) (UniProt P25779) (assay: qHTS Assay for Promiscuous and Specific Inhibitors of Cruzain (without detergent)). Conditions: purified cruzain, Z-FR-AMC fluorescence, no detergent.
Chain of UniProt P25779 (P25779 whole entry, looked up): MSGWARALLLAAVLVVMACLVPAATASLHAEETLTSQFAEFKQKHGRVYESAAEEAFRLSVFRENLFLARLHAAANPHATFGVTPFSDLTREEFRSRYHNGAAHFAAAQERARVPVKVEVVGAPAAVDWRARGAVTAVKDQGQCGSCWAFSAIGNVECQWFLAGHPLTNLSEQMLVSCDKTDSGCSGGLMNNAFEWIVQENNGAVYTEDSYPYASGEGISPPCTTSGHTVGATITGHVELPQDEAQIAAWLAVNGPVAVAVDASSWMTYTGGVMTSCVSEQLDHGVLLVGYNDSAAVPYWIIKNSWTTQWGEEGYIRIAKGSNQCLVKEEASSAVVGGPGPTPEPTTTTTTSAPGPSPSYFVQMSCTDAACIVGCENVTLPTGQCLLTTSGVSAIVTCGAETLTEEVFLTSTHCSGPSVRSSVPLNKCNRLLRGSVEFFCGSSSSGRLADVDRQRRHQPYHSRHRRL
In short: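 Purified cruzain at 1.5 nM, pre-incubated 15 min with compound at room temperature in 100 mM sodium acetate pH 5.5, 5 mM DTT, 0.00005% Triton X-100. Reaction started with 2 uM Z-FR-AMC; AMC fluorescence increase over 60 s gives rate.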
Also: nearly all actives have a fitted effect of over 40% in size.
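For max response, negative = inhibition in this document: plate controls were enzyme without inhibitor for no effect and buffer without enzyme for full effect.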
Potency is read from the fitted curve at half-maximal effect; tags tell the direction and shape of the fitted curve.

SMILES	Potency	max response, negative = inhibition
COc1cccc(CNC(=O)c2cccc(NC(=O)c3nsc4ccccc34)c2)c1	inconclusive: 39.8 µM [inhibitor, single point]	–
CCN(C(=O)c1cc2cc(OC)ccc2oc1=O)c1ccccc1	–	inactive: -7.42%
Cc1ccc(S(=O)(=O)C(C#N)c2nc3ccccc3nc2N2CC(C)OC(C)C2)cc1C (centres undefined)	inconclusive: 39.8 µM [activator, single point]	–
COc1ccc(N(CC(=O)N2CCN(c3ccc(F)cc3)CC2)S(=O)(=O)c2c(C)nn(C)c2C)cc1	inconclusive: 15.8 µM [activator, single point]	–
O=C(N/N=C/c1cn(-c2cccs2)nc1-c1ccccc1)c1ccccc1Cl	inconclusive: 25.1 µM [inhibitor, single point]	–
CC(=O)c1c(C)oc2ccc(N(C(=O)c3ccncc3)S(=O)(=O)c3ccc(F)cc3C)cc12	inconclusive: 25.1 µM [activator, partial curve, poor fit]	–
O=C(NNc1nc(-c2ccccc2)cs1)c1ccccc1	inconclusive: 39.8 µM [inhibitor, single point]	–
CCCCOC(=O)Nc1nnc(-c2ccccc2OC)s1	active: 15.8 µM	–
CCOc1ccc(NC(=O)Cn2c(=O)n(Cc3ccccc3)c(=O)c3c4c(sc32)CN(C(C)=O)CC4)cc1	inconclusive: 3.16 µM [activator, full curve, poor fit]	–
O=C(c1cccc([N+](=O)[O-])c1)N1CCN(CCc2ccncc2)CC1	–	inactive: -1.57%
CC1=CC(C)(C)n2c(O)c(N=NC(N)=S)c3cc(C)cc1c32	inconclusive: 2 µM [inhibitor, full curve, poor fit]	–
O=C(c1ccco1)N1CCN(c2ncnc3c(-c4ccccc4)nsc23)CC1	inconclusive: 39.8 µM [activator, single point]	–
CC12CCC(=O)N1c1c(sc3nc(N4CCOCC4)c4c(c13)CCCC4)C(=O)N2 (centres undefined)	inconclusive: 39.8 µM [activator, single point]	–
COc1ccc(-n2cc(C(=O)Nc3ccccc3C#N)c3ccccc3c2=O)cc1	inconclusive: 31.6 µM [inhibitor, single point]	–
COCCNC(=O)c1c(NC(=O)c2ccco2)n(Cc2ccccc2)c2nc3ccccc3nc12	inconclusive: 31.6 µM [activator, single point]	–
COc1ccc(CCN2C(=O)CC(Nc3ccc(N4CCOCC4)cc3)C2=O)cc1OC (centres undefined)	inconclusive: 39.8 µM [activator, single point]	–
CCCCN1C(=O)/C(=C/C=C2\N(C)c3ccccc3C2(C)C)SC1=S	active: 31.6 µM	–
O=C(Nc1sc2c(c1C(=O)NC1CC1)CCCCCC2)c1ccco1	inconclusive: 25.1 µM [activator, single point]	–
COc1cccc(NC(=O)c2oc3ccc(S(=O)(=O)N4CCOCC4)cc3c2C)c1	inconclusive: 39.8 µM [activator, single point]	–
Cc1ccc(CNC(=O)C2CCCN(S(=O)(=O)c3c(C)n[nH]c3C)C2)cc1 (centres undefined)	–	inactive: 8.96%
CCN1CCc2nc(SCC(=O)Nc3ccc(OC)cc3)c(C#N)cc2C1	inconclusive: 31.6 µM [inhibitor, single point]	–
COC(=O)c1c(NC(=O)c2c(OC)cccc2OC)sc2c1CCCC2	–	inactive: 5.65%

SMILES	Potency	max response, negative = inhibition
COc1ccccc1NS(=O)(=O)c1cc(NC(=O)Nc2ccccc2)ccc1N1CCCCC1	active: 3.16 µM	–
Cc1ccc(S(=O)(=O)N2CCC(=O)N(CCOCc3cccc(C)c3)CC2)cc1	inconclusive: 39.8 µM [activator, single point]	–
Cc1cccc(N=C2Sc3nc4c(C)c(C)ccc4cc3CN2CCN2CCOCC2)c1	inconclusive: 39.8 µM [inhibitor, single point]	–
Cc1cc(C)c(S(=O)(=O)NCC(c2ccco2)N2CCN(c3ccccc3)CC2)c(C)c1 (centres undefined)	–	inactive: -0.352%
Cc1[nH]n(-c2ccc([N+](=O)[O-])cc2)c(=O)c1C=NCCN1CCN(C(=O)c2ccccc2)CC1	inconclusive: 31.6 µM [activator, single point]	–
O=C(NCCSc1c(-c2ccc(Cl)cc2)[nH]c2ccccc12)c1ccc(S(=O)(=O)N2CCOCC2)cc1	inconclusive: 25.1 µM [inhibitor, single point]	–
Cc1ccc(S(=O)(=O)N2CCN(c3c([N+](=O)[O-])cc(C(F)(F)F)cc3[N+](=O)[O-])CC2)cc1	inconclusive: 39.8 µM [inhibitor, single point]	–
Cc1cc(C)n(-c2ccc(C(=O)Nc3nnc(C)s3)cc2)n1	inconclusive: 3.16 µM [inhibitor, single point]	–
O=C(CNc1c(Br)cc(Br)cc1Br)NN=C1CCCCC1	inconclusive: 39.8 µM [inhibitor, single point]	–
COc1ccc(C)cc1N(C(=O)COc1cccc(F)c1)c1nc2ccccc2s1	inconclusive: 31.6 µM [inhibitor, single point]	–
O=C(CNC(=O)c1ccccc1)OC(C(=O)c1ccccc1)c1ccccc1 (centres undefined)	active: 3.98 µM	–
CC1=CN2C(=N)/C(=C/c3ccc(C)o3)C(=O)N=C2S1	–	inactive: -10.9%
Cc1ccc(NC(=O)/C=C/c2ccc3c(c2)OCO3)cc1S(=O)(=O)N1CCOCC1	active: 20 µM	–
Cc1sc(NC(=O)CSc2nc(N)n(CC(=O)c3ccccc3)n2)c(C#N)c1C	inconclusive: 31.6 µM [inhibitor, single point]	–
Oc1c(C=C2N=c3ccccc3=N2)sc(=S)n1C1CCCC1	active: 20 µM	–
Cc1cccc(N2CCN(S(=O)(=O)c3ccc(F)c(C(=O)Nc4cccc(Cl)c4C)c3)CC2C)c1 (centres undefined)	active: 12.6 µM	–
Cc1cccc(C(=O)NNC(=O)c2ccc(Cl)cc2)c1O	inconclusive: 39.8 µM [inhibitor, single point]	–
CCOC(=O)c1c(C)n(C(C)C)c2ccc(OC(=O)c3ccc(N4C(=O)CCC4=O)cc3)cc12	inconclusive: 25.1 µM [activator, partial curve]	–
CCCCN(CCCC)C(=O)c1cc2c(=O)n3ccccc3nc2s1	inconclusive: 31.6 µM [activator, single point]	–
CC(C)Oc1ccc(CNC(=O)C2CCN(C(=O)N3CCOc4ccc(Cl)cc43)CC2)cc1	inconclusive: 31.6 µM [inhibitor, single point]	–
Cc1cccc(N2CCN(C(c3ccc(F)cc3)c3nnc(-c4ccccc4)o3)CC2)c1C (centres undefined)	inconclusive: 39.8 µM [inhibitor, single point]	–
CCN1CCN(C(=O)Cn2ncc3c4ccccc4n(Cc4ccccc4F)c3c2=O)CC1	–	inactive: 0.619%

SMILES	Potency	max response, negative = inhibition
CCc1ccc(OCC(=O)NCC(c2ccc(Cl)cc2)N2CCOCC2)cc1 (centres undefined)	inconclusive: 25.1 µM [activator, partial curve]	–
O=C(CN1C(=O)c2ccccc2C1=O)Nc1sc2c(c1C(=O)NCC1CCCO1)CCC2 (centres undefined)	inconclusive: 39.8 µM [activator, single point]	–
O=C(COc1ccccc1)Nc1ccc(CSc2ccccc2)cc1	inconclusive: 39.8 µM [inhibitor, single point]	–
CCOC(=O)Cc1nnc(Nc2cccc(O)c2)c2ccccc12	–	inactive: 5.39%
CC(C)c1ccc(NC(=O)c2cc3c(=O)oc4ccccc4c3s2)cc1	–	inactive: 4.16%
COc1cccc(C2CN(c3ccc(F)cc3F)N=C2c2cccs2)c1OC (centres undefined)	inconclusive: 39.8 µM [inhibitor, single point]	–
Cn1c(=O)c2c(nc(CN3CCN(c4ccc(F)cc4)CC3)n2Cc2ccccc2F)n(C)c1=O	inconclusive: 25.1 µM [activator, partial curve]	–
COc1cc(NC(=O)COC(=O)CC(C)(C)C)c(C)cc1[N+](=O)[O-]	–	inactive: 4.64%
Cc1nn(Cc2ccccc2)c(C)c1NC(=O)c1cc2nc(-c3ccco3)cc(C(F)(F)F)n2n1	inconclusive: 31.6 µM [activator, single point]	–
COc1ccc(C)cc1S(=O)(=O)Nc1cccc(-c2ccc(N3CCCC3)nn2)c1	–	inactive: 14.6%
COc1ccc(OC)c(NC(=O)Cn2ccn(-c3ccc(F)cc3)c(=O)c2=O)c1	inconclusive: 3.16 µM [activator, single point]	–
COc1ccccc1Oc1ccc2c(c1)C(=O)N(c1ccc(O)cc1)C2=O	active: 20 µM	–
COc1cc2c3cc1Oc1c(O)c(OC)cc4c1[C@@H](Cc1ccc(cc1)Oc1cc(ccc1O)C[C@H]3N(C)CC2)N(C)CC4	–	inactive: -10.4%
Cc1ccc2c(c1)C(CCN)C(=O)N2Cc1ccccc1 (centres undefined)	–	inactive: 7.99%
Cc1ccccc1Cn1c(=N)n(CC(=O)c2ccc([N+](=O)[O-])cc2)c2ccccc21	inconclusive: 39.8 µM [inhibitor, single point]	–
COc1cccc(NC(C(=O)Nc2cccc(C(C)=O)c2)c2ccccc2)c1 (centres undefined)	inconclusive: 39.8 µM [inhibitor, single point]	–
Nc1c(S(=O)(=O)O)cc(S(=O)(=O)O)c2ccc(N=Nc3ccccc3)c(O)c12	–	inactive: -7.13%
Cc1ccc(S(=O)(=O)c2c(Nc3ccccc3)sc(C(=O)c3ccc4c(c3)OCO4)c2N)cc1	active: 7.94 µM	–
CCOc1ccc(-c2nnc3ccc(SCC(=O)Nc4nc5ccccc5s4)nn23)cc1	inconclusive: 20 µM [activator, single point]	–
COc1cccc(-n2c(SCC(=O)Nc3sc4c(c3C(N)=O)CCC4)nc3ccccc3c2=O)c1	active: 25.1 µM	–
